Experimental data taken from PMC12136788.
The list shows a part of the results.

T1: UNK ZnF1-3 (human, UniProt Q9C0B0 31-174)
T1 sequence: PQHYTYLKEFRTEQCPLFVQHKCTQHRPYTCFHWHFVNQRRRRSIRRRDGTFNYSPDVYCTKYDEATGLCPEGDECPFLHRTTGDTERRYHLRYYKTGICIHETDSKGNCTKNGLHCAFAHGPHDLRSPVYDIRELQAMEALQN

B1: chr14:54897011:54897012:-_ENSG00000100528_ENST00000216416|hu_mus|FALSE|FALSE (ssRNA)
RNA: GGGAGUUCUACAGUCCGACGAUCCACCAGAACAUAGAUCAUGCCGUAUAGGUAGUAAAAAAACGCUAGAAGGUAAAAAGCGAGUUUGCACCAUCCUUCCUUCUGACAGUAGGCUAGAAUGUCUGCAUUCAUGAUGGUCGUCGGCAACAGAGGAUUGAGCAUCA
B2: chr7:2411435:2411436:+_ENSG00000106263_ENST00000360876|hu_mus|FALSE|FALSE (ssRNA)
RNA: GGGAGUUCUACAGUCCGACGAUCGAUGGUUUCUUUCAUCUCAACAACAUCAACAGGUACCUGCUUCUCCCUCAUUCGGAAUAUUUCAAAAUUUGUGACAACUCCCUGUGUGCCUUUCGGAGUCCUGUCCACUUUUACACAUAGCAACAGAGGAUUGAGCAUCA
B3: chr7:127231458:127231459:+_ENSG00000004059_ENST00000000233|hu_hu|motif|central (ssRNA)
RNA: GGGAGUUCUACAGUCCGACGAUCCAGGCUCCAACAACAGAGAGAACAUGCAGGCAGGAGCAGGAGCAGAGGCCUGUGGCGGUGGGGGAGGAAAAGUGGGAGGAAAGGGCACUGCCUGAGGAGUCCGGGAGUCUGGUCAUCCCGCAACAGAGGAUUGAGCAUCA
B4: chr15:85259290:85259291:-_ENSG00000140612_ENST00000559729|hu_hu|motif|central (ssRNA)
RNA: GGGAGUUCUACAGUCCGACGAUCAUUUAGGACUUGAUAAUAGAGCUGCCGCUUGUUCAUCCGCCGCACAUCGUCCAAAAAGUCGGGAGACAGCAUGGCGGGGACGGCGAGCAGGACACCGGCAGGGGAAAGGGCGCGAUGACCCAACAGAGGAUUGAGCAUCA
B5: chr11:51605143:51605144:+_ENSMUSG00000020386_ENSMUST00000020653|mus_mus|FALSE|FALSE (ssRNA)
RNA: GGGAGUUCUACAGUCCGACGAUCGGGAAGCUGAUCUUUAUAAACGGUGAUGGAUUGAUGUGGGGUUAGAAACUGUAAAAACUAUCUGUGUGGAAUUAGAAAGCUAACAUUGUGAUAUUCAAACUUGAAUCAGUUUGCAAUUCCCAACAGAGGAUUGAGCAUCA
B6: chr10:33190432:33190433:-_ENSG00000150093_ENST00000302278|hu_mus|hu_hu_hu_mus_True|1_18 (ssRNA)
RNA: GGGAGUUCUACAGUCCGACGAUCUACAUUUUCCAAACCUGCAUGUGAAUAAAACCCUGGCCACAGAGCCCCAAAACUACCCUACUGUGACUAAGAUGCUGCUGCUGUGAGCUUGGUUGUUGUGGGACCGCCUGAGUCAGUACUCAACAGAGGAUUGAGCAUCA
B7: chr4:106720893:106720894:+_ENSMUSG00000061887_ENSMUST00000030367|mus_hu|FALSE|FALSE (ssRNA)
RNA: GGGAGUUCUACAGUCCGACGAUCCAACAAAAAAGUGUCAUGUACAGAAAAGGUCCUUUGGGGAAAGGGCAAGGGGUGGGAUUUUUCUGGUCACUGACUUGAAAUACAUUUUUGAGAGUUUUGUCCUUCUUGUUUUAUGGAAUACAACAGAGGAUUGAGCAUCA
B8: 38241307_38241427_3500_3pUTR_ENSMUSG00000022812_ENSMUST00000023507|mouse|control|control (ssRNA)
RNA: GGGAGUUCUACAGUCCGACGAUCACAGACUCUGUCGCGCUCUCUCCUUUGGCAGCAGCCUUCCUAAGCUGGCAUCUGCAACACCUGCACUGGUCAAGAGCAAAACAAACCUUAAGUAAUCCAUCUCUGAUCUUCCCUUAGAGCCAACAGAGGAUUGAGCAUCA
B9: 27959316_27959436_2906_CDS_ENSG00000141298_ENST00000269033|human|control|control (ssRNA)
RNA: GGGAGUUCUACAGUCCGACGAUCACUGUAUUUCCCUUUGCCUUUGCUCAUUUCUGGUUCCUUGAGGACAAAUGAAUGUUCUGGGGGGGCUUCAUCACUUUUCCCUUUUGGUGCUAGGUCUGCCACAGAAGAAUCAUUCUUUGACAACAGAGGAUUGAGCAUCA
B10: chr9:135554620:135554621:+_ENSG00000125484_ENST00000372146|hu_hu|motif|central (ssRNA)
RNA: GGGAGUUCUACAGUCCGACGAUCUUCUUGUAAAAAUUGAGGGAUAUGUUUAUCUUUUAAAAUCUUCCAGCGUACGGGGUCGGUUAAAUCUACCUGCUUAAAAAGGUUUUGAACUGAAGAUUCCAGGAGCUGAGCAGCUGCCUCCAACAGAGGAUUGAGCAUCA
B11: chr2:216983849:216983850:+_ENSG00000079246_ENST00000392132|hu_hu|FALSE|FALSE (ssRNA)
RNA: GGGAGUUCUACAGUCCGACGAUCCUUGCCAAGUGAGAAAGGCAAGAAGAAUUGCAGGGAGAUGUCACAUUUCUUCAAGCUAUGAAUUAUAAUAUCCAGCUGACUUUUGCUGAAUCGGCUGCUGAGGUCAGUGAAUAUUUCAAUCAACAGAGGAUUGAGCAUCA
B12: chr1:163116471:163116472:-_ENSG00000143248_ENST00000313961|hu_hu|FALSE|FALSE (ssRNA)
RNA: GGGAGUUCUACAGUCCGACGAUCUAUAAAAUACUUCAUUGUUGAUCUUAGGUCAUUGAUUUAAAACAGAAUUUGGUGACUAUGGGCAGGUGGAGGGGGCCAGUGAGGAAGGUAUAAAAGAGAAAUCUUUAUGAAUUGUGUUCACAACAGAGGAUUGAGCAUCA
B13: chr3:10015032:10015033:+_ENSMUSG00000027533_ENSMUST00000029046|mus_mus|mus_mus_mus_hu_True|58_68 (ssRNA)
RNA: GGGAGUUCUACAGUCCGACGAUCGUUUUUACCAUCACAAGUGAUGAUACAAUCUGGCUUGGCCAUUGCAGCCAUCUUCCUAAGAGCUAUUCCCACUCCUAGCUCCUUCAUGUAUUCAUCAAAGCCUUUGCUGUCCACCAGGCGCAACAGAGGAUUGAGCAUCA
B14: 204354679_204354799_599_3pUTR_ENSG00000173166_ENST00000319170|human|control|control (ssRNA)
RNA: GGGAGUUCUACAGUCCGACGAUCUUCUGAGUAGCUUUCGUUUCUGUGAUUUGACGCUUACUGUUUCCUGAACCAAUGCUGCUGAGCUCCUGCUCUAUAGAGCAAAGAUCAGCCAUCAAGGCAUCCAGAUCCACAGUCUCUCCCCAACAGAGGAUUGAGCAUCA
B15: chr11:2981123:2981124:-_ENSG00000205531_ENST00000380542|hu_mus|motif|central (ssRNA)
RNA: GGGAGUUCUACAGUCCGACGAUCCUUGUACGUUUUCGUCAGGACAGGAUUGGUGAAGUAGUCGUUGGGUUCAAAGUGAAACUCGGGCACAAAAGACAUAGGUUGUCCAGGGUCUGAAAACUUCACUUUAAUAUCCUGCAGAUGCAACAGAGGAUUGAGCAUCA
B16: chr14:62203736:62203737:+_ENSG00000100644_ENST00000337138|hu_hu|motif|central (ssRNA)
RNA: GGGAGUUCUACAGUCCGACGAUCUCCAGCGGCUGGGGCCAGCAAAGUUAAAGCAUCAGGUUCCUUCUUAAGUUUGUCAAAGAGGCGGCUUGUAUCUUCUGAUUCAACUUUGGUGAAUAGCUGAGUCAUUUUCAUAUCUGAAGACAACAGAGGAUUGAGCAUCA
B17: chr14:78183846:78183847:+_ENSG00000119705_ENST00000557342|hu_hu|hu_hu_hu_mus_False|8_48 (ssRNA)
RNA: GGGAGUUCUACAGUCCGACGAUCUCUCAGAAAUCUUUCUUCAUCAGAUGUUUGAGCUCCGUGCAAAGCCUUUGCUCUUUGAGCUUGAACCUGGACCUAUGGGAGGGAAAGCACUGUCAGAAAAGGUUGUAGUGCAUUUAAAGACAACAGAGGAUUGAGCAUCA
B18: chr2:29169617:29169618:+_ENSG00000163811_ENST00000407426|hu_hu|FALSE|FALSE (ssRNA)
RNA: GGGAGUUCUACAGUCCGACGAUCUAGUUUGACCGGCUUGCUUUGCUGUCUUCAUUCUUCUUCACUUUCAUUUUCAGGAUCUAAAUCAGAAUCUCCAUUUAAUUCUUUUUCACUUGCUGUAUCUCUGUCCUCGCCAUUUUCUUCCAACAGAGGAUUGAGCAUCA
B19: chr17:39846101:39846102:+_ENSG00000173812_ENST00000591776|hu_mus|FALSE|FALSE (ssRNA)
RNA: GGGAGUUCUACAGUCCGACGAUCAUCAUCAGCGAUCCCUUGGACAGUGGUAAGGGUCUUCCUGCCGUUUCUCUGUUGAAUUCUUAUAUGGAUAUAAUCCUCAGUGCCAGCAGGAAGCAGGUCAUCACCCUUACUUGCAUCAGCCAACAGAGGAUUGAGCAUCA
B20: chr5:130458811:130458812:+_ENSMUSG00000066735_ENSMUST00000051758|mus_mus|motif|central (ssRNA)
RNA: GGGAGUUCUACAGUCCGACGAUCUACUUUCUUCACUAUGUAUCAGUCACGAUGAGCUGACAAUUCCUUUCUACACUUCAACGGAACUGUACAGUAAGUUCUGCAGGGGUGGAUCCCAAUGUUUCUACCUUUAUUUACAAAUAUCAACAGAGGAUUGAGCAUCA
B21: chr2:47387610:47387611:-_ENSG00000143933_ENST00000272298|hu_hu|FALSE|FALSE (ssRNA)
RNA: GGGAGUUCUACAGUCCGACGAUCACGCAGAGUUACAACUCCACACUUCAACAACAACAUGCUGACAGUUCCUAAAGAAAACUACUUUAAAAAAGGCAUAACCCAGAUGUUCCCUCAUUUGACCAACUCCAUCUAAGUUUAGAUCAACAGAGGAUUGAGCAUCA
B22: chr2:48026839:48026840:+_ENSG00000116062_ENST00000540021|hu_hu|hu_hu_hu_mus_False|28_38 (ssRNA)
RNA: GGGAGUUCUACAGUCCGACGAUCAUAGUGAGCCACUAGCGUCCUAAAUCUGGAACAGUGGCGGUCAUCCGAAAACUGGCCGAUGAAAAACUUGCCCAGUGAAGUAUCAACAAAGCAAACACCAUACACACGAGUGUGACCAGACAACAGAGGAUUGAGCAUCA

Biological target: T1, UNK ZnF1-3
Test: nsRBNS (natural sequence RNA bind-n-seq); RBNS binding buffer (assumed for nsRBNS): 25 mM Tris pH 7.5, 150 mM KCl, 3 mM MgCl2, 0.01% Triton X-100, 500 ug/ml BSA, 20 U/ml SUPERase-In, 4 C; UNK is unkempt and MSI1 is Musashi-1; names of the RNAs are library labels; protein concentration not given here; high values mean tight binding

| Binder | binding signal |
| --- | --- |
| B1 | 0.934 enrichment R |
| B2 | 1.29 enrichment R |
| B3 | 2.28 enrichment R |
| B4 | 0.905 enrichment R |
| B5 | 1.26 enrichment R |
| B6 | 1.17 enrichment R |
| B7 | 1.66 enrichment R |
| B8 | 1.14 enrichment R |
| B9 | 0.512 enrichment R |
| B10 | 1.38 enrichment R |
| B11 | 0.747 enrichment R |
| B12 | 1.8 enrichment R |
| B13 | 0.704 enrichment R |
| B14 | 0.588 enrichment R |
| B15 | 0.817 enrichment R |
| B16 | 1.26 enrichment R |
| B17 | 1.31 enrichment R |
| B18 | 0.342 enrichment R |
| B19 | 0.362 enrichment R |
| B20 | 0.808 enrichment R |
| B21 | 1.07 enrichment R |
| B22 | 1.51 enrichment R |
